Assay results published in patent US20080287445A1, “Prokineticin 2 receptor antagonists” (priority 2005, published 2008).
Not every entry of the source has a single result; some have several. The other results are left out here. There may be further records. Results that share an entry seem to repeat one measurement (runs, samples, wells or individuals). What stands in brackets tells the records apart. Letters hold for one entry only.

How the values were obtained:
[1] = target: T1, GPR73 (prokineticin 1 receptor) (Homo sapiens, UniProt Q8TCW9); test: PK1 functional assay: Ca2+ mobilization screening for PK1 antagonists on the FLIPR; assay type: cell-based; conditions: HEK 293 GPR73 cells; PK1 ligand preparation at its EC50; multiple values = multiple testing; read-out: Ca^2+ Mobilization IC50
T1 construct: expressed in transfected cells; host or cells: HEK 293
T1 sequence (Q8TCW9 whole entry, species assumed): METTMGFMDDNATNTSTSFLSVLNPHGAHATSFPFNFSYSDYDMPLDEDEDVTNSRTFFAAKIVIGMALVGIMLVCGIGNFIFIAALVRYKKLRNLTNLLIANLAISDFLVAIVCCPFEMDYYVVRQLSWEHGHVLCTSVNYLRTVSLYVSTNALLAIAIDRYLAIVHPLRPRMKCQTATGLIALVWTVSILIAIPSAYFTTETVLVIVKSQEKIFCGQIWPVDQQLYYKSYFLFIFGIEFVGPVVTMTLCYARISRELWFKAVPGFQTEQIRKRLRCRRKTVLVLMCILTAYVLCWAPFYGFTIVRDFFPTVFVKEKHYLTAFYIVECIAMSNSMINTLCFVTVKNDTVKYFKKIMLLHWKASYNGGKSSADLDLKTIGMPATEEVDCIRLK
Procedure: At a time of 24 h prior to running the assay, in cell culture media (DMEM containing high Glucose and L-glutamine, 10% FBS, 1% Pen/Streptomycin, 1% Sodium Pyruvate, 20 mM HEPES, Zeocin 200 mg/L), 100 μL of 1.3*10^6/ml HEK 293 GPR73 (prokineticin 1 receptor) expressing cells were plated in a 96 well poly-d-lysine coated plate (Costar), and incubated at 37 C and 5% CO2. On the day in which the assay was run, the media was removed and 200 μL of 5× Calcium Plus Dye (Molecular Devices) which was previously resuspended with 200 mL of assay buffer [HBSS w/Ca^2+ and Mg^2+ w/o phenol red, 20 mM HEPES, 0.1% BSA, 10 mL probenecid (710 mg probenecid in 5 mL of 1N NaOH, to which was then added 5 mL HBSS containing 20 mM HEPES)] was added to each well of the 96-well plate. The plate was incubated at 37 C and 5% CO2 for 30 min in dark. The plate was removed and allowed to reach RT for 15 min in the dark. The assay was then run on the FLIPR. In Brief: base line read for 1 min, compound added (25 μL) and incubated for 4 min, 15 seconds, PK1 ligand preparation added (25 μL) for a final concentration of a previously determined EC50 and fluorescence was counted for 1 min, 45 seconds. Baseline is described as the amount of relative fluorescence read when buffer alone is added to cells. Baseline was subtracted from all wells. Percent of control was calculated as follows: […]

PK1 receptor = PK1 receptor (Rattus norvegicus, UniProt Q8R416); conditions: test compound 1 μM basolateral, 15 min; PK1 10 and 100 nM cumulative
PK1 receptor, sequence (Q8R416 whole entry): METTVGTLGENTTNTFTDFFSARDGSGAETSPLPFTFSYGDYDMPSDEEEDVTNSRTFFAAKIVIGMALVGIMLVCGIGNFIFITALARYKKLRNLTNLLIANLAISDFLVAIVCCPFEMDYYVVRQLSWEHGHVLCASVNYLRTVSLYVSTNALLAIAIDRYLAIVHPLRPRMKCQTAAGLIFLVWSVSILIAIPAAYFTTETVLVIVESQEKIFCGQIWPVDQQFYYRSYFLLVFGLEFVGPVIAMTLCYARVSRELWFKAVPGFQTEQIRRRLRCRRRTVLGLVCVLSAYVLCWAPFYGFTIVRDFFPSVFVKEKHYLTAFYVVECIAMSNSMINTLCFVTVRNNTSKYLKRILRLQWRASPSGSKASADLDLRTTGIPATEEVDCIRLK
Procedure: (§1) Methodology. The basic methodology for Ussing-type ion flux chambers used in these studies was the same as that described in detail above with the following modifications to the experimental protocol. […] The responses to two sequential EFS were used to gauge tissue viability and comparability of the responses of individual tissues from each rat and between rats. Tissue conductance was measured at periodic intervals as changes in the amplitudes of brief short-circuit current responses evoked by application of 1 mV amplitude bi-polar pulses from a pulse generator using Ohm's Law. Three to four tissues from each rat were studied. The tissues from a given animal were grouped and assigned accordingly: one control tissue which received only vehicle followed by two consecutive doses of PK-1 ligand added in a cumulative fashion to the basolateral surface of the tissue; the remaining two to three tissues from the same animal were assigned to be exposed to a given PK-1 receptor antagonist (e.g., 3-4 tissues from 1 rat: Control, Antagonist 1, Antagonist2, and/or Antagonist3). Test compound was added to the basolateral tissue side reservoir at a final concentration of 1 μM and allowed a 15 minute incubation period prior to challenge with the PK1 peptide. […]

[2] = test system: pro-secretory effect of carbachol; design: species or system rat; conditions: two ascending cumulative carbachol concentrations, serosal side
Procedure: as §1

Row | Structure (SMILES) | IC50 [1] | suppression of the PK1 evoked increase in Isc (PK1 receptor) | suppression of the pro-secretory effect of carbachol (unrelated secretagogue) [2]
1 | COc1cc(F)c(Cn2c(=O)nc(NCc3cnc(C)cc3C)n(Cc3ccc(OC(F)F)cc3)c2=O)c(F)c1 [Cpd 195] | 374 nM and > 10 µM [one cell] |  | 
2 | COc1ccc(Cn2c(NCc3cccnc3N)nc(=O)n(Cc3ccc(OC)cc3)c2=O)cc1 [Cpd 3, 6-[(2-Amino-pyridin-3-ylmethyl)-amino]-1,3-bis-(4-methoxy-benzyl)-1H-[1,3,5]triazine-2,4-dione] |  | suppresses [passage A] and significant surmountable antagonism [passage B] | without inhibiting [passage A] and failed to suppress [passage B]
3 | COc1ccc(Cn2c(NCc3cnc(C)cc3C)cc(=O)n(Cc3ccc(OC)cc3)c2=O)cc1 [Cpd 61] | 36 nM and 697 nM [one cell] |  | 
